Experimental data published in PubChem BioAssay AID686979 (National Center for Advancing Translational Sciences (NCATS), 2013).
“And” between values parts separate entries of the source, which are not always exact repeats. Equal entries are not always repeated. In all, about 420,000 compounds went through this assay and about 50,000 (12%) were called active. The shares of active, inactive and inconclusive entries below differ from those in the screen. The call rests on the fitted dose curve; in most records, active means well fitted inhibition curve with a large enough effect; inconclusive means small, poorly fitted or top-dose-only effect; inactive means flat fitted curve, though single readings scatter. No potency is given beside an inconclusive call; the fits are too rough. A structure can be active in one record and inactive in another.
On the % scale 0 is the no-effect control and ±100 the full control effect; potency means the concentration at half of the fitted maximal effect; tags describe the fitted curve by direction and shape.

Assay: qHTS for Inhibitors of human tyrosyl-DNA phosphodiesterase 1 (TDP1): qHTS in cells in presence of CPT; further: nearly all actives have a fitted effect of over 55% in size
Details: chicken DT40 Tdp1-/-;hTDP1 cells + 20 nM CPT, ATP luminescence, 48 h; activity change, negative = growth inhibition: at 46.2 µM (top of the series) unless noted
Procedure, shortened: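 Cell growth measured by CellTiter-Glo luminescence after a minimum 48 h, 37 C compound exposure with 20 nM CPT in Tdp1-knockout DT40 cells stably expressing hTDP1, seeded 400/well; qHTS titration format.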
With `COC(=O)c1cn(CCOc2ccccc2OC)c2ccccc12` the Potency was active: 18.4 µM. For `Cc1cccc(-c2nc(NCCCN3CCOCC3)c3ccccc3n2)c1`, the Potency was active: 18.4 µM. In the case of `O=C(COC(=O)c1cccc(S(=O)(=O)N2CCCC2)c1)Nc1ccccc1`, the “activity change, negative = growth inhibition” value is reported as inactive: -7.35%. With `N#C/C(=C\c1cn(CCOc2ccccc2)c2ccccc12)C(=O)NCC1CCCO1` (stereo not drawn) the Potency was inconclusive [inhibitor, single point]. In the case of `CC(C)(C)OC(=O)N(Cc1ccccc1)Cc1ccc(OCc2cccc(NC(=O)C3CC3)c2)cc1`, the Potency is reported as inconclusive [inhibitor, single point]. In the case of `Cc1ccc(NC(=O)c2nc[nH]c2C(=O)N(C)Cc2ccccc2)cc1`, the Potency is reported as inconclusive [inhibitor, single point]. With `O=C(COC(=O)C1CC2CCCC(C1)C2=O)Nc1nc(-c2ccc(F)c(F)c2)cs1` (stereo not drawn) the Potency was inconclusive [inhibitor, single point]. In the case of `CCOC(=O)c1sc(NC(=O)/C=C/c2ccc(C(C)C)cc2)c(C(=O)OCC)c1C`, the “activity change, negative = growth inhibition” value is reported as inactive: 5.17%. For `O=[N+]([O-])c1ccccc1NCc1c(O)ccc2ccccc12`, the Potency was inconclusive [inhibitor, single point]. For `CCCn1c(Sc2nnnn2-c2ccccc2)n[nH]c1=O`, the “activity change, negative = growth inhibition” value was inactive: 1.09%. In the case of `Cc1cccc(CNC(=O)c2sc(=O)n(Cc3ccc(S(C)(=O)=O)cc3)c2C)c1`, the “activity change, negative = growth inhibition” value is reported as inactive: -28.5%. For `CCc1cccc2c(C(=O)CSc3nnc(C4CC4)o3)c[nH]c12`, the Potency was inconclusive [inhibitor, single point]. In the case of `CC(=NNC(=O)c1cccs1)c1ccc2c(c1)OCCO2`, the Potency is reported as inconclusive [inhibitor, single point]. For `O=C(Cn1[nH]c(=O)c2ccccc2c1=O)OCC(=O)c1ccccc1`, the “activity change, negative = growth inhibition” value was inactive: 9.93%. With `O=C(CSc1nc2ccccc2o1)Nc1cc(C(F)(F)F)ccc1N1CCOCC1` the Potency was inconclusive [inhibitor, single point]. For `COc1ccc(OC)c(S(=O)(=O)N2CCCC(C(=O)N3CCOCC3)C2)c1` (stereo not drawn), the “activity change, negative = growth inhibition” value was inactive: 3.58%. In the case of `CC1(C)CNC(=O)CC(C)(C)N1`, the “activity change, negative = growth inhibition” value is reported as inactive: -10.4%. In the case of `Cc1ccc(S(=O)(=O)c2ccc(Oc3cccc(C)c3)cc2)cc1`, the Potency is reported as inconclusive [inhibitor, single point]. In the case of `COc1ccc(-c2coc3c(C(=O)NCc4ccc(OC)c(OC)c4)cccc23)c(C)c1`, the Potency is reported as active: 8.2 µM. In the case of `Cn1c(=O)c2c(nc(N3CCCCC3)n2CC(O)COc2ccccc2)n(C)c1=O` (stereo not drawn), the Potency is reported as inconclusive [inhibitor, single point]. For `CCOC(=O)c1cc(-c2ccc(N)cc2)sc1N`, the Potency was active: 18.4 µM. With `CNC(=O)c1c(O)c2cccc3c2n(c1=O)CC3` the Potency was inconclusive [inhibitor, partial curve]. With `CCCN1CNc2c(c(=O)[nH]c(=S)n2CCc2ccccc2Cl)C1` the Potency was inconclusive [inhibitor, single point]. For `Cc1cc(C)c2cc(CN(Cc3cccs3)Cc3nnnn3CC3CCCO3)c(=O)[nH]c2c1` (stereo not drawn), the Potency was active: 23.1 µM. With `COc1ccc(/C=C/c2ccc3cccc(O)c3n2)cc1Br` the Potency was active: 5.8 µM. For `O=C(CN1C(=O)S/C(=C\c2cccc(Cl)c2)C1=O)NC1C=CS(=O)(=O)C1` (stereo not drawn), the Potency was inconclusive [inhibitor, full curve, poor fit]. With `CCCc1[nH]nc2c1C(c1c(C)nn(-c3ccccc3)c1Cl)C(C#N)=C(N)O2` (stereo not drawn) the Potency was active: 11.2 µM. In the case of `O=C(c1cc(-c2ccccc2)nn1-c1ccccc1)N1CCN(S(=O)(=O)c2ccc(F)cc2)CC1`, the Potency is reported as inconclusive [inhibitor, single point]. For `Cc1cc(Cl)ccc1NC(=O)CSc1n[nH]c(N)n1`, the Potency was inconclusive [inhibitor, single point]. For `CC(C)COc1ccc(C(=O)NCC2(N3CCN(C)CC3)CCCCC2)cc1`, the Potency was inconclusive [inhibitor, single point]. With `C/C(=N\Nc1nc(N)cc(Cl)n1)c1ccc(Cl)c(Cl)c1` the “activity change, negative = growth inhibition” value was inactive: -28.3%. In the case of `CCc1ccc2ncc3c(-c4ccccc4)nn(-c4ccccc4)c3c2c1`, the Potency is reported as inconclusive [inhibitor, partial curve]. For `COCCNC(=O)Cn1nc(C)c2c(C)n(-c3ccc(C)cc3)nc2c1=O`, the “activity change, negative = growth inhibition” value was inactive: -3.95%. For `C[C@H]1CN([C@@H](C)CO)S(=O)(=O)c2ccc(C#CC(C)(C)O)cc2O[C@H]1CN(C)Cc1ccccc1`, the Potency was active: 18.4 µM. With `N#C/C(=C\C=C\c1ccccc1)C(=O)Nc1ccccc1` the “activity change, negative = growth inhibition” value was inactive: -5.68%. In the case of `Cc1ccc(-c2nc(CSc3nc4ccccc4c(=O)n3C)cs2)cc1`, the Potency is reported as active: 18.4 µM. In the case of `COc1ccc(-c2cc(=O)oc3cc(OC(C)C(=O)Nc4ccc(CN5CCOCC5)cc4)ccc23)cc1` (stereo not drawn), the Potency is reported as inconclusive [inhibitor, single point]. For `CN(CC(=O)NC1CCN(Cc2ccccc2)CC1)S(=O)(=O)c1ccc(Cl)s1`, the Potency was inconclusive [inhibitor, single point]. For `Nc1ccc(Oc2cc(N)cc(Oc3ccccc3)c2)cc1`, the “activity change, negative = growth inhibition” value was inactive: -8.51%. In the case of `CCCCC(NC(=O)c1ccccc1)C(=O)OCC(=O)N1c2ccccc2Sc2ccccc21` (stereo not drawn), the Potency is reported as inconclusive [inhibitor, partial curve]. With `O=[N+]([O-])c1cccc(N/N=C/c2cccc3ccccc23)c1` the Potency was inconclusive [inhibitor, single point]. For `CCc1ccccc1NC(=O)CN(C)C(=O)CSc1nn(-c2ccc(F)cc2)c(=S)s1`, the “activity change, negative = growth inhibition” value was inactive: -1.52%. With `N#C/C(=N\Nc1ccccc1F)c1nc(-c2ccccc2)cs1` the Potency was inconclusive [inhibitor, single point]. In the case of `Cc1cc(Br)c(NC(=O)c2c(-c3c(Cl)cccc3Cl)noc2C)c(Br)c1`, the Potency is reported as active: 20.6 µM. For `COc1ccc(CCNC(=O)c2nnn(-c3ccc4c(c3)OCCO4)c2N)cc1OC`, the Potency was inconclusive [inhibitor, single point]. For `CCc1nnc(SCC(=O)Nc2ccccc2Cl)nc1CC`, the Potency was “inactive and active: 16.4 µM”. For `CC(CC(=O)NC1CCCCC1)S(=O)(=O)c1ccc2c(c1)CCN2C(=O)C1CC1` (stereo not drawn), the “activity change, negative = growth inhibition” value was inactive: -20.7%. With `CCOC(=O)C1=C(COC(=O)/C=C/c2ccc(F)cc2)NC(=O)NC1C` (stereo not drawn) the “activity change, negative = growth inhibition” value was inactive: -28.1%. For `Cc1ccc(NC(=O)Cn2c(O)c(N=NC(N)=S)c3ccccc32)cc1`, the Potency was inconclusive [inhibitor, single point]. With `COc1ccc(OC)c(/C=C/c2ccnc3ccccc23)c1` the Potency was active: 4.47 µM and active: 3.66 µM. With `Nc1cc2nc3ccccc3oc-2cc1=O` the Potency was active: 2.06 µM. With `COc1ccc(C(=O)Nc2nnc(-c3ccco3)s2)cc1` the Potency was inconclusive [inhibitor, partial curve]. In the case of `COc1ccc(N(C(=O)c2ccc(OC)c(OC)c2)S(=O)(=O)c2ccc(Cl)cc2)cc1`, the Potency is reported as active: 25.9 µM. In the case of `COc1cccc(NC(=O)CSc2nnc3scc(-c4ccc(Cl)cc4)n23)c1`, the Potency is reported as inconclusive [inhibitor, single point]. With `CC[N+](C)(C)c1cccc(O)c1` the Potency was “inactive”. In the case of `CCN(CC(=O)Nc1ccccc1Br)Cc1nc2ccccc2c(=O)[nH]1`, the Potency is reported as inconclusive [inhibitor, single point]. In the case of `CN(CC(=O)Nc1ccc(N2CCOCC2)cc1)CC(=O)Nc1cccc(C#N)c1`, the “activity change, negative = growth inhibition” value is reported as inactive: -2.43%. With `Cc1nc(N2CCCCC2C)c2c(C)c(C(=O)Nc3cccc(C(F)(F)F)c3)sc2n1` (stereo not drawn) the Potency was inconclusive [inhibitor, single point]. For `CCN(CC)c1nc(-c2cccc(OC)c2O)nc2ccccc12`, the Potency was active: 18.4 µM. With `Cc1ccc(NC(=O)C2CCCN(c3nnc(-n4c(C)ccc4C)s3)C2)c(C)c1` (stereo not drawn) the Potency was inconclusive [inhibitor, partial curve, poor fit]. With `N#Cc1ccccc1Cn1c(=O)n(CCCC(=O)NCc2ccc3c(c2)OCO3)c(=O)c2sccc21` the Potency was inconclusive [inhibitor, single point]. For `CC1=C(C)CS(=O)N(c2ccc(S(N)(=O)=O)cc2)C1` (stereo not drawn), the Potency was active: 13 µM. With `O=C(O)COCC(=O)N1CCCN(c2nccc(C(F)(F)F)n2)CC1` the “activity change, negative = growth inhibition” value was inactive: 0.834%. In the case of `O=c1[nH]c(C2CCN(S(=O)(=O)c3ccc4c(c3)OCCO4)CC2)nc2c1nnn2Cc1c(F)cccc1Cl`, the activity change, negative = growth inhibition is reported as inconclusive: -32.5% [inhibitor]. In the case of `O=C(Nc1ccc(OC(F)(F)F)cc1)c1ccc(S(=O)(=O)N2CCOCC2)o1`, the Potency is reported as inconclusive [inhibitor, partial curve]. In the case of `c1ccc(Cn2nnc3c(N4CCCCCC4)ncnc32)cc1`, the Potency is reported as inconclusive [inhibitor, single point]. With `CN(Cc1ccc(Cl)cc1Cl)C(=O)c1cc(=O)c2ccccc2o1` the Potency was inconclusive [inhibitor, single point]. In the case of `CSc1nsc(SC)c1C(=O)NC(=O)Nc1cccnc1`, the “activity change, negative = growth inhibition” value is reported as inactive: -5.12%. In the case of `Cc1cccc(C(=O)OCC(=O)N(C)C(c2ccccc2)c2ccccc2)c1[N+](=O)[O-]`, the Potency is reported as active: 11.6 µM. For `CCCN(CCC)C(=O)Cn1c(=O)n(-c2cccc(OC)c2)c(=O)c2c3c(sc21)CCCC3`, the Potency was inconclusive [inhibitor, partial curve]. With `COc1ccccc1/C=N/NC(=O)CNC(=O)c1ccc(S(=O)(=O)N2CCCC2)cc1` the “activity change, negative = growth inhibition” value was inactive: 0.814%. With `Cc1ccn2c(=O)cc(COc3ccc(NC(=O)COc4ccc(Cl)cc4)cc3)nc2c1` the “activity change, negative = growth inhibition” value was inactive: -2.25%. In the case of `CCCC(C(=O)NCc1cccc(Cl)c1)N1Cc2ccccc2C1=O` (stereo not drawn), the Potency is reported as inconclusive [inhibitor, single point].
